Screen size: about 2,100 compounds; about 1,100 (52%) were called active. The set was probably picked from earlier hits. The shares of active, inactive and inconclusive entries below differ from those in the screen. Calls follow the shape of the dose curve; as a rule, active = well fitted inhibition curve with a large enough effect; inconclusive = small, poorly fitted or top-dose-only effect; inactive = no such curve, though single readings can be large or run the other way. Potencies of inconclusive entries are left out as doubtful fits.
The compounds below were run against DNA dC->dU-editing enzyme APOBEC-3F (Homo sapiens) (UniProt Q8IUX4) (assay: qHTS for inhibitors of Vif-A3F interactions: Cherry picks counterscreen). Settings: HeLa A3F-eYFP/Vif cells, eYFP fluorescence, 24 h; series mostly up to 46.1 µM; activity, negative = inhibitor: at the top concentration.
Chain of UniProt Q8IUX4 (Q8IUX4 whole entry, looked up): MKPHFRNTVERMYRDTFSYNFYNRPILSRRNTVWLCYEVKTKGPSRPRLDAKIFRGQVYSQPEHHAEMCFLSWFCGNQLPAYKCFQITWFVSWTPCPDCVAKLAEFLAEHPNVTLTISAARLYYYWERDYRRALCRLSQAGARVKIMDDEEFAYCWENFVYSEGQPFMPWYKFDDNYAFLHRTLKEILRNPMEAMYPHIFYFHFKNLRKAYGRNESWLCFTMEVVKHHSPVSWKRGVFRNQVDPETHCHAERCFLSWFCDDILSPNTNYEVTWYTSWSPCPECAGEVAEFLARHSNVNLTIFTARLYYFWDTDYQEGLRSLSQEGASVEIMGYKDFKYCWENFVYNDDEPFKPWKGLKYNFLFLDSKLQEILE
Source text: The recent discovery and characterization of host restriction factors, which provide a potent defense to invading retroviruses, has provided new targets for antiviral drug development. APOBEC3G (A3G) and APOBEC3F (A3F) are potent cytidine deaminases that block HIV-1 replication; HIV-1 expresses the Vif protein, which counteracts A3G and A3F by binding to them and inducing their proteasomal degradation. The Vif-A3G and Vif-A3F interactions provide two potential targets for development of small molecules which can interfere with the ability of Vif to degrade A3G or A3F. […] To identify inhibitors that can interfere with Vif mediated degradation of A3G and A3F, we have developed Hela cell lines that stably express A3G or A3F tagged with eYFP at the C-terminal end (A3G-eYFP or A3F-eYFP, respectively) and Vif. In the absence of an inhibitor, Vif induces degradation of A3G-eYFP and A3F-eYFP, and the cells are not fluorescent. In the presence of an inhibitor, it is expected that Vif will be unable to degrade A3G-eYFP and/or A3F-eYFP, resulting in an increase in yellow fluorescence. In this counterscreen assay, Vif A3F was screened against the cherry picks ordered from the MLSMR. NIH Chemical Genomics Center [NCGC] NIH Molecular Libraries Probe Centers Network [MLPCN] MLPCN Grant: MH093245 Assay Submitter (PI): Vinay Pathak, National Cancer Institute
A3F-Vif cells were harvested from T225 flask and resuspended in phenol free OPTI-MEM medium with 5% FBS. Then 5 uL of 140,000 cells/mL resuspended cells was dispensed into each well of low base Aurora COC 1,536-well plates (black walled, clear bottom) using a Multidrop Combi dispenser. After overnight culture at 37 deg C with 5% CO2, a total of 23 nL of compounds at 5 selected concentrations from the NPC or positive control (2 mM stock of MG132) in DMSO was transferred to each well of the assay plate using a pintool (Kalypsys, San Diego, CA), and the plates were further incubated at 37 deg C with 5% CO2 for 24 hours. After that, the plates were measured on Acumen Explorer (TTP Lab Tech). The fluorescence was detected by 488 nm/Ex and […].
% is scaled to controls: 0 for no effect and ±100 for the full control effect; potency is read from the fitted curve at half-maximal effect; tags tell the direction and shape of the fitted curve.
Also: nearly all actives have a fitted effect of over 65% in size.

| Structure (SMILES) | Potency | activity, negative = inhibitor |
| --- | --- | --- |
| CCCn1c(SCC(=O)Nc2ccccc2OC)nnc1-c1ccco1 | inconclusive [inhibitor, full curve] | – |
| CCN(CC)c1ccc(NC(=O)c2ccc(=O)[nH]c2)cc1S(=O)(=O)Nc1ccc(OC)cc1 | inconclusive [inhibitor, single point] | – |
| Cn1c(=O)c(N)c2c3c(c(Br)ccc31)C(=O)c1ccccc1-2 | inconclusive [inhibitor, single point] | – |
| COc1ccc(NC(=O)c2cccc3ccccc23)cc1 | inconclusive [inhibitor, single point] | – |
| c1cc(SC2CCCCC2)cc(-c2nc3cnccn3c2NC2CCCCC2)c1 | – | inactive: -24.5% |
| C[C@]1(O)CC(=O)C=C[C@H]1Nc1ccccc1 | inconclusive [inhibitor, partial curve, poor fit] | – |
| CCS(=O)(=O)N1CCc2cc(C(=O)N3CCN(c4cccc(C(F)(F)F)c4)CC3)ccc21 | – | inactive: -6.58% |
| Cc1cc(NC(=O)N2CC=C(c3c[nH]c4ccccc34)CC2)ccc1Br | inconclusive [inhibitor, single point] | – |
| COc1ccc(S(=O)(=O)N2CCN(C(=O)c3ccc([N+](=O)[O-])o3)CC2)cc1 | inconclusive [inhibitor, single point] | – |
| CCCN(C(=O)CSc1n[nH]c(-c2ccc(OC)cc2)n1)c1c(N)n(Cc2ccccc2)c(=O)[nH]c1=O | – | inactive: -7.52% |
| O=C(OC12CC3CC(CC(C3)C1)C2)c1ccc(NCc2cc(O)ccc2O)cc1 | inconclusive [inhibitor, full curve] | – |
| COc1ccccc1OCC(=O)N/N=C/C=C/c1ccc([N+](=O)[O-])o1 | active: 16.4 µM | – |
| Cc1ccc(NC(=S)NC(=O)c2ccc(F)cc2)cc1S(=O)(=O)Nc1cccc(Cl)c1 | inconclusive [inhibitor, partial curve] | – |
| Cc1ccc(NC(=O)c2c(C)nc3sc(C(=O)NC4CCCC4)c(N)c3c2-c2ccco2)c(C)c1 | inconclusive [inhibitor, single point] | – |
| Cc1ccc(S(=O)(=O)N2CCCCC2)cc1NC(=O)Cn1ncc(Cl)c(Cl)c1=O | inconclusive [inhibitor, partial curve] | – |
| Cc1noc(C)c1C(=O)OCC(=O)Nc1ccccc1SCC#N | inconclusive [inhibitor, single point] | – |
| COc1ccc(OC)c2sc(NC(=O)CCS(=O)(=O)c3ccccc3)nc12 | inconclusive [inhibitor, single point] | – |
| NC(=O)c1c(NC(=O)c2ccccc2)sc2c1CCN(Cc1ccccc1)C2 | inconclusive [inhibitor, single point] | – |
| COc1ccc(/C=C/c2ccnc3ccccc23)c(OC)c1 | inconclusive [inhibitor, single point] | – |
| Cc1ccc2nc(/C(C#N)=C/c3ccc(-c4cccc([N+](=O)[O-])c4)o3)[nH]c2c1 | inconclusive [inhibitor, partial curve] | – |
| O=C(N/N=C/c1ccc(-c2ccc([N+](=O)[O-])cc2)o1)[C@H]1C[C@@H]1c1ccccc1 | – | inactive: -1.57% |
| Cc1c(C(=O)Nc2ccc(C(C)C)cc2)sc2nc3n(c(=O)c12)CCC3 | – | inactive: -7.16% |
| CNC(=S)N/N=C(\C)c1ccc(Cl)s1 | – | inactive: 3.84% |

| Structure (SMILES) | Potency | activity, negative = inhibitor |
| --- | --- | --- |
| Cc1cc(N2CCN(Cc3cn(C)nc3-c3ccccc3F)CC2)cc(C)n1 | inconclusive [inhibitor, single point] | – |
| COc1cc(C(=O)Nc2ccc3c(c2)nc(C)n3C)cc(OC)c1OC | inconclusive [inhibitor, single point] | – |
| O=[N+]([O-])c1cc(Cl)c2cccnc2c1O | – | inactive: 4.37% |
| O=C(CCCCn1c(=O)c2ccccc2n(Cc2ccc(F)cc2)c1=O)NCc1ccco1 | inconclusive [inhibitor, single point] | – |
| COc1ccc(CNCC(=O)Nc2ccccc2-n2cccc2)cc1 | inconclusive [inhibitor, partial curve] | – |
| COc1cc(/C=C(\C#N)c2nc3ccccc3[nH]2)cc(Cl)c1OCc1ccccc1Cl | inconclusive [inhibitor, single point] | – |
| Cc1cc(Br)ccc1SCC(=O)OC/C(O)=C(\C#N)c1nc2ccccc2[nH]1 | – | inactive: -16.4% |
| O=C(/C=C/c1ccncc1)c1cc(Cl)ccc1O | – | inactive: -16.9% |
| COc1ccc(OC)c(NC(=O)c2cc(-c3cc(C)cc(C)c3O)n[nH]2)c1 | – | inactive: -0.959% |
| CCS(=O)(=O)c1nn2c(N)c(/C=C3/C=CC(=O)C(OC)=C3)c(=O)nc2s1 | – | inactive: 47.2% |
| O=[N+]([O-])c1ccccc1C=NNC(=S)NN=Cc1ccccc1[N+](=O)[O-] | inconclusive [inhibitor, partial curve] | – |
| Cc1cccc(C(=O)Nc2nnc(C3=COCCO3)o2)c1 | – | inactive: -6.45% |
| CCOC(=O)c1ccc(N=Nc2c(C)c(C#N)c(O)[nH]c2=O)cc1 | – | inactive: -26.8% |
| CC1CC(=O)C2=C(C1)OC(N)=C(C#N)C2c1coc2ccccc2c1=O (stereo not drawn) | inconclusive [inhibitor, single point] | – |
| CCC(C)Sc1cccc(-c2nc3cc(C)ccn3c2NC2CCCCC2)c1 (stereo not drawn) | – | inactive: -9.38% |
| Oc1[nH]c2ccccc2c1N=Nc1ccccc1 | inconclusive [inhibitor, single point] | – |
| CC(/C=N/NC(=O)c1cc(-c2ccccc2)nc2ccccc12)=C\c1ccco1 | active: 3.14 µM | – |
| S=C(Nc1ccccc1)N1CCn2c1nc1ccccc12 | – | inactive: -0.0104% [at 36.9 µM] |
| COc1ccc(N/C=C2\C(=O)CCc3c2oc2cc(Cl)c(O)c(Cl)c32)cc1 | inconclusive [inhibitor, single point] | – |
| Nc1nc(SCc2ccc(Cl)cc2Cl)nc2nc3c(cc12)CCCC3 | inconclusive [inhibitor, single point] | – |
| CCOC(=O)CN1C(=O)S/C(=C/C=C/c2ccc(N(C)C)cc2)C1=O | inconclusive [inhibitor, single point] | – |
| CN1C(=O)/C(=C\c2ccc(N(C)C)cc2)OC1=S | active: 1.98 µM | – |
| O=S(=O)(Nc1cc(Sc2ncn[nH]2)c(O)c2ccccc12)c1ccccc1 | inconclusive [inhibitor, single point] | – |

| Structure (SMILES) | Potency | activity, negative = inhibitor |
| --- | --- | --- |
| COC1=C/C(=C/c2c(N)n3nc(-c4ccc(C)cc4)sc3nc2=O)C=CC1=O | inconclusive [inhibitor, single point] | – |
| Cc1ccc(-c2nc3ncccc3o2)cc1NC(=O)c1ccc([N+](=O)[O-])o1 | inconclusive [inhibitor, partial curve] | – |
| CCCCn1c(NC(=O)c2ccco2)c(S(=O)(=O)c2ccc(C)cc2)c2nc3ccccc3nc21 | inconclusive [inhibitor, single point] | – |
| C=CCOC(=O)C1=C(C)Nc2nnnn2C1c1cccs1 (stereo not drawn) | – | inactive: -25.7% [at 36.9 µM] |
| CCS(=O)(=O)N1N=C(c2cccc(NS(C)(=O)=O)c2)CC1c1ccc(C)cc1 (stereo not drawn) | active: 18.4 µM | – |
| O=C(Nc1ccc(N2CCN(C(=O)c3ccc(Cl)cc3)CC2)cc1)c1ccc([N+](=O)[O-])o1 | inconclusive [inhibitor, full curve] | – |
| CC(=O)Nc1cccc(-c2ccnc3c2CC(C(=O)Nc2cccc(N(C)C)c2)O3)c1 (stereo not drawn) | inconclusive [inhibitor, single point] | – |
| Cn1nnnc1SCc1nc2scc(-c3ccc(Cl)cc3)c2c(=O)[nH]1 | inconclusive [inhibitor, partial curve, poor fit] | – |
| Cc1cc(C)nc(NC(=S)Nc2cccc(Cl)c2Cl)c1 | – | inactive: -15.2% |
| Fc1cccc(Cc2c(-c3ccco3)nc3ccc(Br)cn23)c1 | inconclusive [inhibitor, single point] | – |
| Cc1cc(-n2c(C)cc(C(=O)CCl)c2C)no1 | inconclusive [inhibitor, single point] | – |
| CSc1nsc(/C=C/Nc2ccc(C)cc2)c1C#N | inconclusive [inhibitor, single point] | – |
| CC1(C(=O)NCc2ccc(F)c(F)c2)Cc2c(-c3cccc(C(N)=O)c3)ccnc2O1 (stereo not drawn) | inconclusive [inhibitor, partial curve] | – |
| S=c1[nH]nc(-c2cccnc2)n1/N=C/C(Cl)=C\c1ccccc1 | inconclusive [inhibitor, partial curve] | – |
| CCCCCCN1C[C@H](O)[C@@H](n2cc(COC(=O)c3ccccc3)nn2)C[C@@H]1c1ccc(C)cc1 | – | inactive: -0.577% |
| COc1cc2c(c(OC)c1OC)-c1ccc(N(C)CC(OC)OC)c(=O)cc1[C@@H](NC(C)=O)CC2 | active: 1.12 µM | – |
| CCCSc1nnc(N2C(=O)C(O)=C(C(=O)c3ccco3)C2c2ccccc2F)s1 (stereo not drawn) | – | inactive: 0.34% |
| CCOc1cc(/C=C/C(=O)c2ccc(OC)c(CN3CCOCC3)c2)cc(Br)c1O | inconclusive [inhibitor, single point] | – |
| CCn1c2ccccc2c2c3ncc4cccn4c3ccc21 | inconclusive [inhibitor, partial curve, poor fit] | – |
| O=C1/C(=C/c2ccc(O)cc2)SC(=S)N1CC1CCCO1 (stereo not drawn) | inconclusive [inhibitor, single point] | – |
| CCN(CC)c1ccc2c(c1)oc(=O)c1c(Cl)cc(=O)oc12 | inconclusive [inhibitor, single point] | – |
| N#C/C(=C/c1ccc(O)c(O)c1)c1nc2ccccc2[nH]1 | inconclusive [inhibitor, partial curve] | – |

Source: PubChem BioAssay AID651815 (National Center for Advancing Translational Sciences (NCATS), 2012)
